Measured values from PubChem BioAssay (NCI).
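Following 48 hours of exposure in 96-well plates, responses at five concentrations were used to interpolate endpoints linearly. GI50 marks 50% less growth. Definition used: TGI = concentration required for complete inhibition of growth.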

Tested on: NCI-H322M lung
Experiment: DTP human tumour cell line panel, 48 h

## C[N+]1(c2ccccc2)C=C(c2ccccc2)SC1=S (configuration not stated)
  TGI: > 100 µM

## COC1C(O)CC(OC2CC(OC3CC(O[C@@H]4C(=O)c5c(cc6cc(OC7CC(OC8CC(O)C(O)C(C)O8)C(O)C(C)O7)c(C)c(O)c6c5O)C[C@H]4[C@H](OC)C(=O)[C@@H](O)[C@@H](C)O)OC(C)C3O)OC(C)C2O)OC1C (some centres not stated)
  TGI: 10.5 µM

## CC(=O)c1sc2n(C)c(=O)c3ccccc3[n+]2c1C
  TGI: > 100 µM

## O=C(NCCNC(=O)c1ccc(F)cc1)Nc1ccc(-n2cc(-c3ccncc3)c(-c3ccc(Cl)c(O)c3)n2)cc1
  GI50: 1.05 µM
  TGI: 6.8 µM

## CC(=O)[O][Hg][CH2]C1(C)COC(C)([CH2][Hg][O]C(C)=O)CO1 (configuration not stated)
  GI50: > 43.4 µM
  TGI: > 58.5 µM

## CCNC1=C(NC(=O)c2ccc(OC)cc2)C(=O)c2ccccc2C1=O
  TGI: > 100 µM

## O=C1C(CO)=C[C@@H](O)[C@H]2O[C@@H]12
  TGI: > 100 µM

## COC(=O)C1=C(C(=O)OC)C(OO)(c2ccccc2)OC1=O (configuration not stated)
  TGI: > 100 µM

## CCOC(=O)C(O)Cc1cnc2ccccc2n1 (configuration not stated)
  TGI: > 100 µM

## C=C[Si](C)(C)COC(=O)/C(C#N)=C/C=C/c1ccccc1
  TGI: > 100 µM

## O=C(/C=C/c1ccc(O)cc1)c1cc(-c2cc(CCC(=O)c3ccc(O)cc3O)ccc2O)c(O)cc1O
  TGI: > 50 µM

## O=C1O/C(=C\C=C\CO)C=C1/C=C/CO
  TGI: 95.1 µM

## O=C1Nc2ccccc2/C1=N/N1C(=O)/C(=C/c2ccccc2S)N=C1c1ccccc1
  TGI: > 100 µM

## COc1ccc2oc(=O)c(-c3csc(-c4ccccc4)n3)cc2c1
  TGI: > 100 µM

## COc1ccc(C2N3CCCCC3[C@@H]3c4[nH]c5ccccc5c4CCN23)c(OC)c1 (some centres not stated)
  TGI: > 100 µM

## Cc1cccc(C)c1NC(=O)CCCC(=O)C(C#N)c1ccc(Cl)cc1 (configuration not stated)
  TGI: > 100 µM

## N#CCN1CCN(CC#N)CCN(CC#N)CCN(CC#N)CC1
  TGI: > 100 µM

## CCOC(=O)CNC(=O)CNC(=O)CNC(=O)CNNc1c(OCc2ccccc2)c(=O)c1=O
  TGI: > 100 µM

## COc1cc2c(c(OC)c1OC)C(=O)c1c-2n(CCCN=[N+]=[N-])c(=O)c2cc([N+](=O)[O-])ccc12
  GI50: > 100 µM
  TGI: > 100 µM

## Oc1ccc2ccccc2c1NCn1nc(CCCCCCCCc2nn(CNc3c(O)ccc4ccccc34)c(=S)o2)oc1=S
  TGI: > 100 µM

## CN(C)CCN=C1Nc2ccccc2C(=O)N2CSCC12 (configuration not stated)
  TGI: > 100 µM

## O=C(c1ccccc1)c1ccc(O)c2ncccc12
  GI50: 2.57 µM
  TGI: 24.8 µM

## O=c1oc2c(cc1-c1ccccc1)C(O)Oc1ccccc1-2 (configuration not stated)
  GI50: 16.1 µM
  TGI: > 100 µM

## O=C1c2ccccc2C(=O)c2sc(Nc3ccc(Cl)cc3)nc21
  TGI: 10.5 µM

## O=C1Nc2ccc(CN3CCOC3=O)cc2/C1=C/c1cc(CN2CCOCC2)c[nH]1
  GI50: 95.7 µM
  TGI: > 100 µM

## O=C(c1ccc(Cl)c(Cl)c1)N(C(=O)N1CCN(c2ccccc2)CC1)S(=O)(=O)c1ccccc1
  TGI: > 100 µM

## N=C(N)SCCN1CCCCC1
  TGI: > 100 µM

## COc1ccc2c(c1)C(=O)c1c-2n(CCCN=[N+]=[N-])c(=O)c2cc(N)ccc12
  GI50: > 100 µM
  TGI: > 100 µM

## COC(=O)C1=CO[C@@H](OC2OC(CO)C(O)C(O)C2O)[C@@H]2[C@H](C)[C@@H](O)[C@@H](O)[C@]12O (some centres not stated)
  TGI: > 100 µM

## Cn1ccc2c3c(=O)cc[nH]c3ccc21
  GI50: > 100 µM
  TGI: > 100 µM

## CCN(CC)c1ccc2cc(-c3csc(C)n3)c(=O)oc2c1
  TGI: > 100 µM

## Cc1ccc(/C=C2\CCCCCC2=O)cc1
  TGI: > 100 µM

## CN(C)CCCN1c2ccc(O)cc2Sc2ccc(Cl)cc21
  TGI: 27.9 µM

## O=S(=O)([O-])[O-].[Fe+2].[OH2+]c1c(Cl)cc(Cl)cc1/C=N/Nc1ccccn1
  TGI: 4.27 µM

## CC(=O)C(N=NC1CCC(S(=O)(=O)NB2N=CS2)CC1)C(=O)Nc1ccccc1C (configuration not stated)
  TGI: 43.4 µM

## CC(C)N(C(=O)C12C3(C(=O)C(C)(C)C)C4C5(C#N)C3C1(C(=O)C(C)(C)C)C5C42C(=O)C(C)(C)C)C(C)C (configuration not stated)
  TGI: > 100 µM

## NCCn1cnc2nc(NC(=O)c3ccccc3)[nH]c(=O)c21
  TGI: > 100 µM

## COc1ccc(OC2OC(CO)C(O)C(O)C2O)cc1 (configuration not stated)
  TGI: > 100 µM

## O=C1COc2cc3c(cc2N1)SCCC(=O)N3
  TGI: > 100 µM
